# Results: the supplement of paper PMC10037445
# Over roughly 2,900 compounds, “NF-kB SEAP reporter activity, fold change vs agonist alone” has its median near 0.99; the highest 2% begin near 2.6. The list shows a part of the results.
# How the values were obtained:
# RAW-Dual [1] = assay: NF-kB SEAP reporter activity, fold change vs agonist alone; higher = enhanced NF-kB activity
# In short: (§1)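 Reporter activity is given as fold change relative to agonist-alone wells. To measure it, 50 nL of library stock was pin-tooled onto RAW-Dual macrophages (50,000 cells/well, DMEM, 384-well plates), a PRR agonist followed 1 h later, and cells stayed at 37 °C, 5% CO2. Twenty hours on, supernatant was assayed for IRF (QuantiLuc luminescence) and NF-κB (QuantiBlue, 620 nm absorbance), and wells under 70% of agonist-control IncuCyte confluency in both mask sets were marked cytotoxic.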
# RAW-Dual [2] = assay: NF-kB SEAP reporter activity, fold change vs agonist alone; cytotoxicity flag (confluency mask): not cytotoxic; higher = enhanced NF-kB activity
# In short: as §1
# RAW-Dual [3] = assay: NF-kB SEAP reporter activity, fold change vs agonist alone; cytotoxicity flag (confluency mask): cytotoxic (confluency <70% of control); higher = enhanced NF-kB activity
# In short: as §1
# [4] = library stock concentration (final ~1000-fold dilution): 10 mM, cytotoxicity flag (confluency mask): not cytotoxic, agonist: Imiquimod (TLR7) […]
# [5] = library stock concentration (final ~1000-fold dilution): 10 mM, cytotoxicity flag (confluency mask): not cytotoxic, agonist: MPLA (TLR4) […]
# [6] = agonist: ODN 1826 (TLR9) 0.5 ug/mL
# [7] = agonist: Pam2CSK4 (TLR2/6) 0.1 ug/mL
# [8] = agonist: Pam3CSK4 (TLR2/1) 0.1 ug/mL
# [9] = library stock concentration (final ~1000-fold dilution): 10 mM, cytotoxicity flag (confluency mask): cytotoxic (confluency <70% of control), agonist: Imiquimod (TLR7) […]
# [10] = library stock concentration (final ~1000-fold dilution): 10 mM, cytotoxicity flag (confluency mask): cytotoxic (confluency <70% of control), agonist: MPLA (TLR4) […]
# [11] = library stock concentration (final ~1000-fold dilution): 2 mM, cytotoxicity flag (confluency mask): not cytotoxic, agonist: Imiquimod (TLR7) […]
# [12] = library stock concentration (final ~1000-fold dilution): 2 mM, cytotoxicity flag (confluency mask): not cytotoxic, agonist: MPLA (TLR4) […]
smiles,measurement,setting,value
COc1cc(Nc2nc3ccccc3nc2NS(=O)(=O)c2ccc(NC(=O)c3ccc(C)c(OC)c3)cc2)cc(OC)c1,NF-kB SEAP reporter activity,RAW-Dual [1]; [4],0.914
same,NF-kB SEAP reporter activity,RAW-Dual [1]; [5],0.963
CC1CCN(CCC2CCCN2S(=O)(=O)c2cccc(O)c2)CC1.Cl (configuration not stated) (library stock concentration (final ~1000-fold dilution): 10 mM),NF-kB SEAP reporter activity,RAW-Dual [2]; agonist: LPS (TLR4) 0.1 ug/mL,0.989
same,NF-kB SEAP reporter activity,RAW-Dual [2]; [6],0.894
same,NF-kB SEAP reporter activity,RAW-Dual [2]; [7],1.02
same,NF-kB SEAP reporter activity,RAW-Dual [2]; [8],1.11
CC1CCN(CCC2CCCN2S(=O)(=O)c2cccc(O)c2)CC1.Cl (configuration not stated),NF-kB SEAP reporter activity,RAW-Dual [1]; [4],1.07
same,NF-kB SEAP reporter activity,RAW-Dual [1]; [5],1.08
O=C1CCc2cc(OCCCCc3nnnn3C3CCCCC3)ccc2N1,NF-kB SEAP reporter activity,RAW-Dual [1]; [4],0.931
same,NF-kB SEAP reporter activity,RAW-Dual [1]; [5],1.12
O=C1CCc2cc(OCCCCc3nnnn3C3CCCCC3)ccc2N1 (library stock concentration (final ~1000-fold dilution): 10 mM),NF-kB SEAP reporter activity,RAW-Dual [2]; agonist: LPS (TLR4) 0.1 ug/mL,1.27
same,NF-kB SEAP reporter activity,RAW-Dual [2]; [6],1.31
same,NF-kB SEAP reporter activity,RAW-Dual [2]; [7],1.11
same,NF-kB SEAP reporter activity,RAW-Dual [2]; [8],1.29
CCN1CC(CCN2CCOCC2)C(c2ccccc2)(c2ccccc2)C1=O (configuration not stated) (library stock concentration (final ~1000-fold dilution): 10 mM),NF-kB SEAP reporter activity,RAW-Dual [2]; agonist: LPS (TLR4) 0.1 ug/mL,1.08
same,NF-kB SEAP reporter activity,RAW-Dual [2]; [6],0.914
same,NF-kB SEAP reporter activity,RAW-Dual [2]; [7],1.01
same,NF-kB SEAP reporter activity,RAW-Dual [2]; [8],0.891
CCN1CC(CCN2CCOCC2)C(c2ccccc2)(c2ccccc2)C1=O (configuration not stated),NF-kB SEAP reporter activity,RAW-Dual [1]; [5],1.11
CCCC1CC(C(=O)NC(C(C)Cl)C2OC(SC)C(O)C(O)C2O)N(C)C1.Cl (configuration not stated) (library stock concentration (final ~1000-fold dilution): 10 mM),NF-kB SEAP reporter activity,RAW-Dual [2]; agonist: LPS (TLR4) 0.1 ug/mL,1.11
same,NF-kB SEAP reporter activity,RAW-Dual [2]; [6],1.04
same,NF-kB SEAP reporter activity,RAW-Dual [2]; [7],1.06
same,NF-kB SEAP reporter activity,RAW-Dual [2]; [8],1.08
CCCC1CC(C(=O)NC(C(C)Cl)C2OC(SC)C(O)C(O)C2O)N(C)C1.Cl (configuration not stated),NF-kB SEAP reporter activity,RAW-Dual [1]; [4],0.95
same,NF-kB SEAP reporter activity,RAW-Dual [1]; [5],1.06
COc1cc(NS(C)(=O)=O)ccc1Nc1c2ccccc2nc2ccccc12.Cl,NF-kB SEAP reporter activity,RAW-Dual [1]; [9],2.58
same,NF-kB SEAP reporter activity,RAW-Dual [1]; [10],2.51
COc1cc(NS(C)(=O)=O)ccc1Nc1c2ccccc2nc2ccccc12.Cl (library stock concentration (final ~1000-fold dilution): 10 mM),NF-kB SEAP reporter activity,RAW-Dual [3]; agonist: LPS (TLR4) 0.1 ug/mL,2.6
same,NF-kB SEAP reporter activity,RAW-Dual [3]; [6],0.68
same,NF-kB SEAP reporter activity,RAW-Dual [3]; [7],1.05
same,NF-kB SEAP reporter activity,RAW-Dual [3]; [8],0.776
Cc1cnc(CNC(=O)c2c(=O)c3ccc(N4CCCN(C)CC4)nc3n3c2sc2ccccc23)cn1 (library stock concentration (final ~1000-fold dilution): 2 mM),NF-kB SEAP reporter activity,RAW-Dual [2]; agonist: LPS (TLR4) 0.1 ug/mL,1.12
same,NF-kB SEAP reporter activity,RAW-Dual [2]; [6],1.16
same,NF-kB SEAP reporter activity,RAW-Dual [2]; [7],0.641
same,NF-kB SEAP reporter activity,RAW-Dual [2]; [8],0.697
Cc1cnc(CNC(=O)c2c(=O)c3ccc(N4CCCN(C)CC4)nc3n3c2sc2ccccc23)cn1,NF-kB SEAP reporter activity,RAW-Dual [1]; [11],0.893
same,NF-kB SEAP reporter activity,RAW-Dual [1]; [12],0.975
O=C1/C(=C/c2ccncc2)CCC/C1=C\c1ccncc1,NF-kB SEAP reporter activity,RAW-Dual [1]; [10],0.323
O=C1/C(=C/c2ccncc2)CCC/C1=C\c1ccncc1 (library stock concentration (final ~1000-fold dilution): 10 mM),NF-kB SEAP reporter activity,RAW-Dual [3]; agonist: LPS (TLR4) 0.1 ug/mL,0.237
same,NF-kB SEAP reporter activity,RAW-Dual [3]; [6],0.759
same,NF-kB SEAP reporter activity,RAW-Dual [3]; [7],0.537
same,NF-kB SEAP reporter activity,RAW-Dual [3]; [8],0.963
O=C(C=Cn1cnc(-c2cc(C(F)(F)F)cc(C(F)(F)F)c2)n1)NNc1cnccn1 (library stock concentration (final ~1000-fold dilution): 10 mM),NF-kB SEAP reporter activity,RAW-Dual [2]; agonist: LPS (TLR4) 0.1 ug/mL,0.255
same,NF-kB SEAP reporter activity,RAW-Dual [2]; [6],0.841
same,NF-kB SEAP reporter activity,RAW-Dual [2]; [7],0.42
same,NF-kB SEAP reporter activity,RAW-Dual [2]; [8],0.428
O=C(C=Cn1cnc(-c2cc(C(F)(F)F)cc(C(F)(F)F)c2)n1)NNc1cnccn1,NF-kB SEAP reporter activity,RAW-Dual [1]; [4],1.41
same,NF-kB SEAP reporter activity,RAW-Dual [1]; [5],0.523
Cc1nc2n(c(=O)c1CCN1CCC(c3noc4cc(F)ccc34)CC1)CCCC2 (library stock concentration (final ~1000-fold dilution): 2 mM),NF-kB SEAP reporter activity,RAW-Dual [2]; agonist: LPS (TLR4) 0.1 ug/mL,1.34
same,NF-kB SEAP reporter activity,RAW-Dual [2]; [6],1.06
same,NF-kB SEAP reporter activity,RAW-Dual [2]; [7],1.15
same,NF-kB SEAP reporter activity,RAW-Dual [2]; [8],1.01
Cc1nc2n(c(=O)c1CCN1CCC(c3noc4cc(F)ccc34)CC1)CCCC2,NF-kB SEAP reporter activity,RAW-Dual [1]; [11],0.96
same,NF-kB SEAP reporter activity,RAW-Dual [1]; [12],1.07
COc1cc2c(cc1O)CCC1C2CCC2(C)C(O)CCC12 (configuration not stated) (library stock concentration (final ~1000-fold dilution): 10 mM),NF-kB SEAP reporter activity,RAW-Dual [3]; agonist: LPS (TLR4) 0.1 ug/mL,2.54
same,NF-kB SEAP reporter activity,RAW-Dual [3]; [6],1.73
same,NF-kB SEAP reporter activity,RAW-Dual [3]; [7],1.75
same,NF-kB SEAP reporter activity,RAW-Dual [3]; [8],1.34
COc1cc2c(cc1O)CCC1C2CCC2(C)C(O)CCC12 (configuration not stated),NF-kB SEAP reporter activity,RAW-Dual [1]; [9],2
same,NF-kB SEAP reporter activity,RAW-Dual [1]; [10],1.69
CCCC(NC(=O)/C(C#N)=C/c1cccc(Br)n1)c1ccccc1 (configuration not stated) (library stock concentration (final ~1000-fold dilution): 10 mM),NF-kB SEAP reporter activity,RAW-Dual [2]; agonist: LPS (TLR4) 0.1 ug/mL,0.416
same,NF-kB SEAP reporter activity,RAW-Dual [2]; [6],0.925
same,NF-kB SEAP reporter activity,RAW-Dual [2]; [7],0.387
same,NF-kB SEAP reporter activity,RAW-Dual [2]; [8],0.838
CCCC(NC(=O)/C(C#N)=C/c1cccc(Br)n1)c1ccccc1 (configuration not stated),NF-kB SEAP reporter activity,RAW-Dual [1]; [4],0.971
same,NF-kB SEAP reporter activity,RAW-Dual [1]; [5],0.962
COC(=O)NC(C(=O)N1CCCC1C(=O)Nc1ccc(C2CCC(c3ccc(NC(=O)C4CCCN4C(=O)C(NC(=O)OC)C(C)C)cc3)N2c2ccc(C(C)(C)C)cc2)cc1)C(C)C (configuration not stated) (library stock concentration (final ~1000-fold dilution): 10 mM),NF-kB SEAP reporter activity,RAW-Dual [2]; agonist: LPS (TLR4) 0.1 ug/mL,1.35
same,NF-kB SEAP reporter activity,RAW-Dual [2]; [6],0.585
same,NF-kB SEAP reporter activity,RAW-Dual [2]; [7],0.487
same,NF-kB SEAP reporter activity,RAW-Dual [2]; [8],0.58
COC(=O)NC(C(=O)N1CCCC1C(=O)Nc1ccc(C2CCC(c3ccc(NC(=O)C4CCCN4C(=O)C(NC(=O)OC)C(C)C)cc3)N2c2ccc(C(C)(C)C)cc2)cc1)C(C)C (configuration not stated),NF-kB SEAP reporter activity,RAW-Dual [1]; [5],0.983
CC1CCC(C(=O)N(c2cc(C#CC(C)(C)C)sc2C(=O)O)C2CCC(O)CC2)CC1 (configuration not stated) (library stock concentration (final ~1000-fold dilution): 10 mM),NF-kB SEAP reporter activity,RAW-Dual [2]; agonist: LPS (TLR4) 0.1 ug/mL,1.12
same,NF-kB SEAP reporter activity,RAW-Dual [2]; [6],0.987
same,NF-kB SEAP reporter activity,RAW-Dual [2]; [7],0.998
same,NF-kB SEAP reporter activity,RAW-Dual [2]; [8],0.917
CC1CCC(C(=O)N(c2cc(C#CC(C)(C)C)sc2C(=O)O)C2CCC(O)CC2)CC1 (configuration not stated),NF-kB SEAP reporter activity,RAW-Dual [1]; [4],0.483
same,NF-kB SEAP reporter activity,RAW-Dual [1]; [5],0.705
